Measurements reported in PubChem BioAssay AID485364 (National Center for Advancing Translational Sciences (NCATS), 2010).
Screen size: about 360,000 compounds; about 11,000 (3.1%) were called active. The shares of active, inactive and inconclusive entries below differ from those in the screen. Calls come from the whole dose curve; as a rule, active = well fitted inhibition curve with a large enough effect; inconclusive = small, poorly fitted or top-dose-only effect; inactive = no such curve, though single readings can be large or run the other way. No potency is given beside an inconclusive call; the fits are too rough.

Biological target: Schistosoma mansoni thioredoxin glutathione reductase (TGR) (UniProt Q962Y6)
Test: qHTS Assay for the Inhibitors of Schistosoma Mansoni Peroxiredoxins; note: nearly all actives have a fitted effect of over 60% in size
Details: purified TGR, DTNB reduction, TNB absorbance 405 nm; activity change, negative = inhibition: at 114 µM (top of the series) unless noted
How it was run: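 Kinetic colorimetric format: TGR-catalysed, NADPH-driven DTNB reduction monitored via TNB absorbance. Enzyme dispensed at 20 nM; compound exposure 15 min at room temperature before reaction start.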
% is set by controls: 0 for no effect and ±100 for the full control effect; potency is the fitted concentration of half-maximal effect; tags give direction and shape of the fitted curve.

| SMILES | Potency | activity change, negative = inhibition |
| --- | --- | --- |
| CC1CN(CCOCCOc2ccccc2-c2ccccc2)CC(C)O1 (stereo not given) | inconclusive [inhibitor, single point] |  |
| Cc1ccc(C(=O)NCCOC23CC4CC(CC(C4)C2)C3)cc1 |  | inactive: 3.84% |
| CCc1ccc(NC2Nc3cc(C)nn3S2)cc1 (stereo not given) | inconclusive [inhibitor, partial curve] |  |
| Cc1ccc(NC(=O)Cn2cnc3sc(C(=O)NCc4ccco4)c(C)c3c2=O)cc1Cl | inconclusive [inhibitor, single point] |  |
| COC(=O)CCCC1=CC2=CC(=O)C(C)(OC(=O)c3cccs3)C(=O)C2=CN1Cc1ccc2c(c1)OCO2 (stereo not given) |  | inactive: -29.3% |
| O=C(C1CCN(S(=O)(=O)c2cccc3cccnc23)CC1)N1CCN(C2CCCCC2)CC1 | inconclusive [inhibitor, partial curve, poor fit] |  |
| O=C(Nc1cccc(NC(=O)c2ccc(-c3ccc(Br)cc3)o2)c1)c1ccccc1 |  | inactive: -22.6% |
| COc1ccc(-n2nc(C(=O)NCC(=O)N3CCCC3)c3ccccc3c2=O)cc1 |  | inactive: 4.39% |
| O=C(Cc1ccccc1)NCC(=O)OCC(=O)c1cccc([N+](=O)[O-])c1 | inconclusive [inhibitor, single point] |  |
| O=C(Nc1ccc(O)c(-c2nc3ccccc3o2)c1)C1(c2ccc([N+](=O)[O-])cc2)CCCC1 |  | inactive: 3.5% |
| BrC(=C\c1ccccc1)/C=N/Nc1ccc2nncn2n1 | inconclusive [inhibitor, partial curve] |  |
| Cc1ccc(NC(=O)CN(C)C(=O)CSc2nc(C)cs2)cc1 | inconclusive [inhibitor, partial curve] |  |
| O=C(c1nn2c(C(F)(F)F)cc(-c3cccs3)nc2c1Cl)N1CCCc2ccccc21 |  | inactive: -16.8% |
| CCOC(=O)c1cc(CN2CCOCC2)oc1-c1ccccc1 | inconclusive [inhibitor, partial curve] |  |
| CCc1ccccc1Nc1cc(C(=O)NCCCN(C)C2CCCCC2)c2ccccc2n1 | inconclusive [inhibitor, single point] |  |
| CCC(=O)Nc1cccc(NC(=S)NC(=O)c2ccccc2C)c1 | inconclusive [inhibitor, partial curve] |  |
| Cc1ccc(Cl)cc1N1CCN(S(=O)(=O)c2ccc(-c3ccc(=O)[nH]n3)o2)CC1 | inconclusive [inhibitor, partial curve] |  |
| COc1ccc(O)c(CN2CCC(n3nccc3NC(=O)C3CCCC3)CC2)c1 | inconclusive [inhibitor, partial curve] |  |
| CCOCC(=O)Nc1cc(C(=O)Nc2ccc(F)cc2)ccc1Cl |  | inactive: 0.942% |
| Cc1nnc(Sc2cc(NCCCO)c([N+](=O)[O-])c3nonc23)s1 | active: 0.316 µM |  |
| CC(C)c1ccc(S(=O)(=O)c2cc3cc(Br)ccc3oc2=O)cc1 | inconclusive [inhibitor, full curve, poor fit] |  |
| COC(=O)c1ccccc1OCc1cccc(C)n1 |  | inactive: 1.11% |
| Cc1ccc(/C(N)=N/OC(=O)Cc2cccc3ccccc23)cc1 |  | inactive: 10.9% |
| COc1ccc(C(=O)N/C(=C/c2ccco2)C(=O)NC2CCS(=O)(=O)C2)cc1 (stereo not given) | inconclusive [inhibitor, partial curve] |  |

| SMILES | Potency | activity change, negative = inhibition |
| --- | --- | --- |
| CCOC(=O)c1ccc(N=Cc2nc(-c3ccccc3)oc2OC(C)=O)cc1 | inconclusive [inhibitor, full curve] |  |
| O=[N+]([O-])/C(C(Cl)=C(Cl)Cl)=C(/Sc1ccccc1)N1CCCCC1 | active: 28.2 µM |  |
| CCc1ccc(CCC(=O)Nc2ncc(Cc3ccccc3Cl)s2)o1 | inconclusive [inhibitor, partial curve] |  |
| O=S(=O)(Cc1ccccc1Cl)Nc1ccccn1 | active: 25.1 µM |  |
| CN=c1scc(-c2cccs2)n1/N=C/c1ccc(O)c(O)c1O | inconclusive [inhibitor, partial curve] |  |
| CN(Cc1ccccc1)C(=O)CSc1nnc(-c2ccco2)n1-c1ccccc1 | active: 31.6 µM |  |
| CSCC(=O)NC1CCCN(C2Cc3ccccc3C2)C1 (stereo not given) | inconclusive [inhibitor, partial curve] |  |
| S=C(NCc1ccco1)Nc1ccc(Br)cc1Cl | inconclusive [inhibitor, partial curve] |  |
| COc1ccc(C2=NCC(=O)N(CC(=O)NCc3ccco3)c3sc4c(c32)CCCC4)cc1 | inconclusive [inhibitor, partial curve, poor fit] |  |
| N#Cc1cc2c(nc1SCC(=O)N1CCCCC1)CCCCC2 | inconclusive [inhibitor, single point] |  |
| CCOC(=O)c1c(N)n(Cc2ccco2)c2nc3ccccc3nc12 | active: 44.7 µM |  |
| Cc1csc2c(SCC(=O)NNC(=O)C(Cl)Cl)ncnc12 | inconclusive [inhibitor, partial curve] |  |
| CCc1cc2c(s1)NC(=O)CN=C2c1cccs1 | inconclusive [inhibitor, partial curve] |  |
| Cc1ccc(OCc2cc(C(=O)N3CCN(C4CCCC4)CC3)no2)cc1C | inconclusive [inhibitor, partial curve, poor fit] |  |
| COc1ccc(/C=N/c2nc3ccccc3n2C)cc1OC |  | inactive: 0% |
| O=C(NCc1ccco1)c1ccc2snnc2c1 | inconclusive [inhibitor, partial curve] |  |
| Fc1ccc(N2CCN(c3ncnc4c3nc3n4CCCC3)CC2)cc1 | inconclusive [inhibitor, single point] |  |
| CCOc1ccc(S(=O)(=O)NCCC(=O)NCCc2ccc(OCC)c(OCC)c2)cc1 | active: 3.16 µM |  |
| COc1cc(O)c2c(=O)c(-c3ccc(O[C@@H]4O[C@H](CO)[C@@H](O)[C@H](O)[C@H]4O)cc3)coc2c1 | inconclusive [inhibitor, single point] |  |
| Cc1ccc(N2CCN(S(=O)(=O)c3cc(Br)cc4c3N(C(=O)C3CC3)CC4)CC2C)cc1 (stereo not given) |  | inactive: -32.1% |
| O=C(NC(=S)Nc1cccnc1Cl)c1ccc(F)cc1 | inconclusive [inhibitor, full curve] |  |
| CCOC(=O)Cc1c(C)nc2c(-c3cccc(Br)c3)cnn2c1C |  | inactive: -21.4% |
| Fc1ccc(NC(=S)Nc2ccc(F)c(Cl)c2)cc1Cl | inconclusive [inhibitor, partial curve, poor fit] |  |
| CCOC(=O)c1cc2c(=O)n3ccccc3nc2n(Cc2ccco2)c1=NC(=O)c1ccc(OC)cc1OC | active: 31.6 µM |  |

| SMILES | Potency | activity change, negative = inhibition |
| --- | --- | --- |
| O=C(CSc1nnnn1-c1ccc2c(c1)CCC2)NCc1cccs1 | inconclusive [inhibitor, full curve] |  |
| Cc1ccc(O)c([C@H](CCN(C(C)C)C(C)C)c2ccccc2)c1 |  | inactive: 8.06% |
| COc1ccc2c(c1)[C@H]1[C@H](CO2)[C@H](c2ccccc2)[C@]2(C)C(=O)Nc3ccccc3C(=O)N12 | inconclusive [inhibitor, partial curve] |  |
| Cc1cc(=O)[nH]c(N/N=C/c2ccc3c(c2)OCCO3)n1 | active: 39.8 µM |  |
| CCN(CC)C1CCN(C(=O)CCc2nnc(CCc3ccccc3)o2)C1 (stereo not given) |  | inactive: 1.93% |
| O=C(CCC(=O)N/N=C/c1ccco1)N/N=C/c1ccco1 | inconclusive [inhibitor, partial curve] |  |
| Cc1ccc([C@@H]2C[C@H]3CN(Cc4cccc(Cl)c4)C(=O)[C@]34CCCN24)o1 | inconclusive [inhibitor, partial curve] |  |
| CCN1CCN(Cc2coc3ccc(C)cc3c2=O)CC1 | inconclusive [inhibitor, single point] |  |
| O=C(O)c1ccccc1N/N=C/c1c(Sc2nnnn2-c2ccccc2)nc2ccccn2c1=O | active: 39.8 µM |  |
| CCOC(=O)C1(CC2CCCCO2)CCN(Cc2nc(-c3cccs3)oc2C)CC1 (stereo not given) | inconclusive [inhibitor, partial curve] |  |
| COc1cc(CC2COC(c3ccc(O)c(OC)c3)C2COC(C)=O)ccc1O (stereo not given) | active: 39.8 µM |  |
| CSc1nn(Cc2ccc(F)cc2)c(N)c1S(=O)(=O)c1ccc(Cl)cc1 | inconclusive [inhibitor, single point] |  |
| Cc1cc(C)cc(NC(=O)c2ccc(Cn3nc(C)c(Cl)c3C)o2)c1 | inconclusive [inhibitor, partial curve] |  |
| CCC1(C)Cc2c(sc(NC(=S)NC(=O)c3ccccc3)c2C#N)CO1 (stereo not given) | inconclusive [inhibitor, full curve] |  |
| C/C(CCC(=O)OC[C@H]1O[C@H](C#Cc2ccccc2)C=C[C@@H]1Oc1ccc(C)cc1)=N\O[C@@H](C)CN1CCCCc2nc(C)c(C)cc21 | active: 35.5 µM |  |
| CN1CCN(c2ccc(Cl)cc2NC(=O)CCN2C(=O)c3ccccc3C2=O)CC1 | active: 39.8 µM |  |
| C=CCn1cc(C=C2C(=O)NC(=O)NC2=O)c2ccccc21 | inconclusive [inhibitor, partial curve] |  |
| CN(C)C(=O)N=NC(=O)N(C)C | inconclusive [inhibitor, partial curve] |  |
| Cc1ccccc1S(=O)(=O)Cc1ccc(C(=O)N2CC(C)CC(C)C2)o1 (stereo not given) | inconclusive [inhibitor, partial curve] |  |
| O=C(O)c1ccccc1C(=O)N1CCN(c2ccccc2)CC1 | active: 35.5 µM |  |
| Cc1cccc(-n2c(SCC(=O)Nc3ccccc3C)nc3c(oc4ccccc43)c2=O)c1 |  | inactive: 13.8% |
| O=C(CCCCC(=O)NCCCc1ccccc1)NCCCc1ccccc1 |  | inactive: -15.6% |
